Laboratory results published in a collection of fitness landscapes (doi:10.1126/science.1257360).
This is one part of the list.

B1: PhoQ; a variant is named by its letters at X, in order, P23837 (parent)
chain: MKKLLRLFFPLSLRVRFLLATAAVVLVLSLAYGMVALIGYSVSFDKTTFRLLRGESNLFYTLAKWENNKLHVELPENIDKQSPTMTLIYDENGQLLWAQRDVPWLMKMIQPDWLKSNGFHEIEADVNDTSLLLSGDHSIQQQLQEVREDDDDAEMTHSVAVNVYPATSRMPKLTIVVVDTIPVELKSSYMVWSWFIYVLSANLLLVIPLLWVAAWWSLRPIEALAKEVRELEEHNRELLNPATTRELTSLVRNLNRLLKSERERYDKYRTTLTDLTHSLKTPLXXLQXXLRSLRSEKMSVSDAEPVMLEQISRISQQIGYYLHRASMRGGTLLSRELHPVAPLLDNLTSALNKVYQRKGVNISLDISPEISFVGEQNDFVEVMGNVLDNACKYCLEFVEISARQTDEHLYIVVEDDGPGIPLSKREVIFDRGQRVDTLRPGQGVGLAVAREITEQYEGKIVAGESMLGGARMEVIFGRQHSAPKDE

Variants of: B1
Test: enrichment ratio after two sorts for PhoP signalling (ratio (wild type AVST 3.29)); higher = more functional
Conditions: with PhoP (E. coli)

Variant	enrichment ratio
ELCF	3.34
MLIN	≤ 0.25
SNNH	0.834
EIIR	≤ 0.25
EFPG	≤ 0.25
HDGL	≤ 0.25
QQYD	≤ 0.25
PGLY	≤ 0.25
TDFF	≤ 0.25
LTRV	≤ 0.25
MCVG	≤ 0.25
GMSF	0.7
APQP	≤ 0.25
VFMC	≤ 0.25
PEGP	≤ 0.25
ECMP	≤ 0.25
YRHM	≤ 0.25
PRTM	≤ 0.25
VSYD	≤ 0.25
SNEK	≤ 0.25
FGNY	≤ 0.25
LKIN	≤ 0.25
EFGW	≤ 0.25
WQQP	≤ 0.25

Variant	enrichment ratio
TAEP	0.518
RGTV	≤ 0.25
QSDY	14.5
LPCM	≤ 0.25
YPYP	≤ 0.25
NPPS	≤ 0.25
DRRA	0.527
HSVW	≤ 0.25
GLFN	≤ 0.25
PETC	≤ 0.25
FENP	≤ 0.25
HPST	≤ 0.25
LSQD	≤ 0.25
DALR	≤ 0.25
RFIP	≤ 0.25
MTGV	1.48
LNTI	≤ 0.25
DAWV	≤ 0.25
VDDT	≤ 0.25
YTYD	≤ 0.25
SHPA	≤ 0.25
HQIM	≤ 0.25
YRGL	≤ 0.25
HKWC	≤ 0.25

Variant	enrichment ratio
MRHL	≤ 0.25
KSSI	≤ 0.25
YHNV	≤ 0.25
MGCN	5.8
NWTD	≤ 0.25
TWNP	≤ 0.25
EVGF	≤ 0.25
MNDC	≤ 0.25
WTMP	≤ 0.25
TYSE	≤ 0.25
IIYW	≤ 0.25
SLSW	4.5
LEFK	≤ 0.25
DDRA	≤ 0.25
FYST	≤ 0.25
QRCH	≤ 0.25
IVKA	≤ 0.25
QYGK	≤ 0.25
FGCV	5.46
WYRN	≤ 0.25
NMGW	≤ 0.25
IFIY	≤ 0.25
SRLD	≤ 0.25
PIRK	≤ 0.25

Variant	enrichment ratio
HFCQ	≤ 0.25
TRQH	≤ 0.25
HCLY	≤ 0.25
GMIM	2.67
PKHG	≤ 0.25
ITTY	≤ 0.25
VNWN	≤ 0.25
RSTH	≤ 0.25
AKEM	≤ 0.25
PNGA	≤ 0.25
MLWQ	≤ 0.25
GVPE	≤ 0.25
DNIM	≤ 0.25
FTHD	≤ 0.25
WIHI	≤ 0.25
VLHN	≤ 0.25
WQWP	≤ 0.25
VCDP	≤ 0.25
FWTM	≤ 0.25
YMDC	≤ 0.25
IEEE	≤ 0.25
FGMI	11.8
TNIY	≤ 0.25
EETW	≤ 0.25

Variant	enrichment ratio
VECI	3.1
MGNT	≤ 0.25
NCGH	≤ 0.25
MHTN	≤ 0.25
QPIT	≤ 0.25
LYVF	≤ 0.25
DGNY	≤ 0.25
IFAE	≤ 0.25
KAEH	≤ 0.25
YSKD	≤ 0.25
TQKF	≤ 0.25
IGWS	≤ 0.25
GNKM	≤ 0.25
EHVA	≤ 0.25
PMDR	≤ 0.25
STLC	13.2
SHER	≤ 0.25
VLMG	≤ 0.25
VSEP	≤ 0.25
SKLY	5.45
LFIM	≤ 0.25
NSAQ	≤ 0.25
MTCA	≤ 0.25
TSET	3.28

Variant	enrichment ratio
RLIP	≤ 0.25
LFYV	≤ 0.25
EAWS	≤ 0.25
SDIK	≤ 0.25
RQMF	≤ 0.25
VFAM	≤ 0.25
YQSM	≤ 0.25
GFTM	≤ 0.25
NTSF	≤ 0.25
NCYL	≤ 0.25
PTEE	≤ 0.25
IIFK	≤ 0.25
ALCL	9.88
IPVR	≤ 0.25
MGYK	≤ 0.25
MTYS	≤ 0.25
WHMG	≤ 0.25
IIIC	≤ 0.25
YMNF	≤ 0.25
PQQT	≤ 0.25
PWWD	≤ 0.25
MPWV	≤ 0.25
QGLM	3.62
SLAY	9.69

Variant	enrichment ratio
DSWC	≤ 0.25
AIRR	≤ 0.25
QCGL	4.14
QHRW	≤ 0.25
YMKT	≤ 0.25
FNDL	≤ 0.25
REPE	≤ 0.25
KAIF	≤ 0.25
SEFF	2.1
VRHH	≤ 0.25
DSSI	≤ 0.25
RQWF	≤ 0.25
RNDL	≤ 0.25
VEWM	1.2
VTFT	≤ 0.25
FNFS	≤ 0.25
SGMD	≤ 0.25
VRTK	≤ 0.25
SSHV	≤ 0.25
NFYP	≤ 0.25
IRQQ	≤ 0.25
LLMM	≤ 0.25
AAYI	0.507
EHNI	≤ 0.25

Variant	enrichment ratio
AMDP	≤ 0.25
MQWN	≤ 0.25
MIQP	≤ 0.25
ARVC	≤ 0.25
SDWC	≤ 0.25
LDSN	≤ 0.25
FRKK	≤ 0.25
VYKR	≤ 0.25
YTRT	0.581
GCDP	≤ 0.25
NMLE	≤ 0.25
SCMG	25.9
SSLL	19.9
NPRC	≤ 0.25
MFVT	≤ 0.25
FDWW	≤ 0.25
HWYL	≤ 0.25
GVVQ	≤ 0.25
QLSL	1.69
SKHW	≤ 0.25
TTMI	6.49
GSHT	≤ 0.25
LHRD	≤ 0.25
IDVM	≤ 0.25

Variant	enrichment ratio
MIHN	≤ 0.25
TPHE	≤ 0.25
APHV	≤ 0.25
KRNE	≤ 0.25
DRSF	≤ 0.25
LCPT	≤ 0.25
ILAF	≤ 0.25
PMPT	≤ 0.25
LVQM	≤ 0.25
LEMA	≤ 0.25
PMEW	≤ 0.25
PMHA	≤ 0.25
MMPF	≤ 0.25
GHDS	≤ 0.25
TTWH	8.79
KPHY	≤ 0.25
RNNV	≤ 0.25
QDVH	≤ 0.25
KHSR	≤ 0.25
ARGH	≤ 0.25
KYCK	≤ 0.25
YDAP	≤ 0.25
FEKI	≤ 0.25
TKRR	≤ 0.25

Variant	enrichment ratio
KSMF	≤ 0.25
HWDT	≤ 0.25
PART	≤ 0.25
KSVQ	≤ 0.25
PLIH	≤ 0.25
KTSD	≤ 0.25
ATQY	≤ 0.25
LWGG	≤ 0.25
AVPL	5.74
PMCR	≤ 0.25
FHNF	≤ 0.25
EAPT	≤ 0.25
MVHQ	≤ 0.25
LFLP	≤ 0.25
FPCV	≤ 0.25
WHVH	≤ 0.25
FATV	≤ 0.25
IWMH	≤ 0.25
VWVP	≤ 0.25
FARG	≤ 0.25
LKID	≤ 0.25
GIDC	≤ 0.25
EERN	≤ 0.25
KGRK	≤ 0.25

Variant	enrichment ratio
MASM	16.9
SSES	≤ 0.25
ILEC	≤ 0.25
QCSS	4.78
YSRR	≤ 0.25
DCAI	≤ 0.25
QIYR	≤ 0.25
SWML	≤ 0.25
FQIT	≤ 0.25
AHPW	≤ 0.25
FGTA	≤ 0.25
YWRG	≤ 0.25
KRIT	≤ 0.25
IVVQ	≤ 0.25
NVWD	≤ 0.25
RIWR	≤ 0.25
VPEW	≤ 0.25
PNVL	≤ 0.25
HGCR	≤ 0.25
QSEL	≤ 0.25
AAPI	4.19
NQET	≤ 0.25
HMWC	≤ 0.25
VHDY	≤ 0.25

Variant	enrichment ratio
HCPN	≤ 0.25
QTFF	2.95
ALVL	4.98
NSQD	≤ 0.25
TIHH	3.22
LTEK	≤ 0.25
PMRC	≤ 0.25
ECMW	≤ 0.25
IWHP	≤ 0.25
STDQ	≤ 0.25
FGSI	≤ 0.25
ESIG	≤ 0.25
ATWL	≤ 0.25
RDGN	≤ 0.25
NDFC	≤ 0.25
FELP	≤ 0.25
YTPI	≤ 0.25
LYRC	≤ 0.25
SVDH	≤ 0.25
KFFV	≤ 0.25
TSDK	≤ 0.25
RMTR	≤ 0.25
EMLF	≤ 0.25
RSRN	≤ 0.25

Variant	enrichment ratio
NHKV	≤ 0.25
WLPA	≤ 0.25
LNEF	≤ 0.25
KVSW	≤ 0.25
DQDY	≤ 0.25
LINK	≤ 0.25
PECA	≤ 0.25
ADQG	≤ 0.25
LNAE	≤ 0.25
QPPT	≤ 0.25
PSVD	0.409
WSPE	≤ 0.25
NVFV	≤ 0.25
FEKE	≤ 0.25
NAFV	≤ 0.25
VGMQ	2.81
DNGQ	≤ 0.25
QRMD	≤ 0.25
